# The campaign covered roughly 410,000 compounds. About 260 (0.063%) were called active. Inconclusive means that the source gave no clear call. Such entries were picked first, then a sample of the others. Calls come from the whole dose curve; as a rule, active = well fitted activation curve with a large enough effect; inconclusive = small, poorly fitted or top-dose-only effect; inactive = no such curve, though single readings can be large or run the other way. No potency is given beside an inconclusive call; the fits are too rough.
# Experiment: qHTS for compounds that reverse cellular toxicity of Amyloid beta (A-beta) peptide in yeast: Primary Screen; note: nearly all actives have a fitted effect of over 55% in size
# Conditions: yeast expressing A-beta42, growth rescue, OD600, 48 h; growth rescue: at 46.1 µM (top of the series), 0% DMSO, 100% iron-clioquinol control
# Summary of the method: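 Yeast growth medium received pinned compounds, then yeast cells expressing toxic A-beta were added; plates incubated at 30 C for 48 hr. Growth read as absorbance at 600 nm, normalized to DMSO and equimolar FeCl3 plus clioquinol controls.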
# Potency is the fitted concentration of half-maximal effect; tags give direction and shape of the fitted curve.
SMILES,Potency,growth rescue
Cc1cc(OC(=O)c2ccco2)c(Sc2ccccc2[N+](=O)[O-])c(=O)o1,inactive,
COC(=O)CNC(c1ccccc1)c1cc(Br)ccc1N (centres undefined),"inconclusive [activator, single point]",
CCSc1nnc(NS(=O)(=O)c2ccc(OC)cc2)s1,"inconclusive [activator, partial curve, poor fit]",
COc1ccc2oc(C(=O)OC(C)C(=O)Nc3ccc(N4CCOCC4)cc3)c(C)c2c1 (centres undefined),inactive,
Cc1ccc(NC(=S)N2CCCC2)cc1Cl,"inconclusive [activator, partial curve, poor fit]",
O=C(CSc1cccc[n+]1[O-])C12CC3CC(CC(C3)C1)C2,"inconclusive [activator, single point]",
Cc1[nH]n(-c2ccccc2)c(=O)c1/C=N/N1CCOCC1,inactive,
Cc1ccc(S(=O)(=O)N(C)C)cc1NC(=O)C(C)OC(=O)C1CCCCC1 (centres undefined),inactive,
NC(=O)COC(=O)CSc1ccc2ccccc2c1,"inconclusive [activator, single point]",
Cc1cc(Nc2ccc(Cl)cc2)n(-c2ccccc2)n1,inactive,
O=C(CSc1nc2ccccc2o1)Nc1nc2c(s1)CCCC2,"inconclusive [activator, partial curve, poor fit]",
CCCCn1c(COc2cccc(OC)c2)nc2ccccc21,"inconclusive [activator, single point]",
Cc1ccc(C)c2[nH]c(=O)c(C(c3nnnn3C(C)(C)C)N3CC=C(c4ccc(F)cc4)CC3)cc12 (centres undefined),"inconclusive [activator, full curve]",
Cn1cnc([N+](=O)[O-])c1NC(C)(C)C,inactive,
Cc1cc(Cl)ccc1NC(=S)NC(C)(C)C,"inconclusive [activator, partial curve, poor fit]",
Cc1ccc(C(=O)CN2C(=O)C(C)Oc3ccccc32)cc1 (centres undefined),"inconclusive [activator, full curve, poor fit]",
CCCOC(=O)C1=C(C)NC2=C(C(=O)CC(C)(C)C2)C1c1ccc(N(C)C)cc1 (centres undefined),inactive,
COc1cccc(OCc2nc3ccccc3n2CCOc2ccccc2)c1,"inconclusive [activator, single point]",
O=C(Nc1cccc(-c2csc(Nc3ccc(Cl)cc3)n2)c1)c1ccccc1,inactive,
COc1ccc(NC(=O)Cc2coc3cc(C)cc(C)c23)c(OC)c1,"inconclusive [activator, partial curve, poor fit]",
O=C(CN(c1ccc(Cl)cc1)S(=O)(=O)c1ccccc1)N1CCN(c2ccccc2)CC1,"inconclusive [activator, single point]",
CSc1nsc(SC)c1NC(=O)OC1CCCCC1,active: 4.47 µM,
Cc1cccc2sc(N(Cc3cccnc3)C(=O)CCc3ccccc3)nc12,inactive,
S=c1[nH]c(-c2cccs2)cn1-c1ccccc1,"inconclusive [activator, single point]",
O=C(Nc1nnc(C2CC2)o1)c1ccc(S(=O)(=O)N2CCCc3ccccc32)cc1,"inconclusive [activator, partial curve, poor fit]",

SMILES,Potency,growth rescue
COc1cccc(/C=N/n2c(C3CCCCC3)n[nH]c2=S)c1,"inconclusive [activator, single point]",
Cc1cc(OCC(=O)Nc2ccccc2N2CCCC2)ccc1C(C)C,"inconclusive [activator, partial curve]",
COc1cccc(-n2c(=O)c3c(C)c(C)sc3n(CC(=O)NCCc3ccc(OC)c(OC)c3)c2=O)c1,inactive,
COc1cccc(OCc2nc3ccccc3n2CCOc2ccc(C)cc2)c1,"inconclusive [activator, partial curve]",
COc1ccc(C(=O)N(CCN2CCOCC2)CC(=O)NC2CCCC2)cc1OC,"inconclusive [activator, partial curve, poor fit]",
COc1ccc(OC)c(NS(=O)(=O)c2cc3c(cc2Cl)N(C(C)=O)CCO3)c1,inactive,
S=C(Nc1cccc2ccccc12)NN1CCCCCC1,"inconclusive [activator, partial curve]",
CCCOc1ccc(C(=O)Nc2ccc3oc(-c4ccncc4)nc3c2)cc1,inactive,
FC(F)(F)c1cccc(NC(=S)NCc2ccccn2)c1,"inconclusive [activator, single point]",
CCOCCCN(Cc1ccco1)S(=O)(=O)c1cc2c(cc1Cl)NC(=O)CO2,inactive,
COc1cc(NC(=O)N2CCC(CN3CCOCC3)CC2)cc(OC)c1OC,inactive,
COc1ccccc1-c1cc2c(c3c1ccn3C)C1CCC2O1 (centres undefined),inactive,
Cc1ccc(Nc2nnc(-c3ccccc3N)o2)cc1C,"inconclusive [activator, full curve]",
Oc1[nH]c2ccccc2c1N=NC(=S)N1CCOCC1,"inconclusive [activator, single point]",
Cc1cccc(NC(=S)N2CCN(c3ccccc3F)CC2)c1C,"inconclusive [activator, full curve, poor fit]",
O=C(COc1ccccc1)N1CCN(c2ncccn2)CC1,inactive,
Cc1ccc(NC(=S)N2CCC(c3ccc(C)cc3)C2)cc1 (centres undefined),"inconclusive [activator, partial curve, poor fit]",
Cc1cccc(NC(=S)N2CCCCCC2)c1C,"inconclusive [activator, single point]",
CC(C)(C)C1(C)OC(C(N)=O)C(C(N)=O)O1 (centres undefined),"inconclusive [activator, partial curve, poor fit]",
COC(=O)C1=C(C)N(c2ccc(Cl)c(Cl)c2)C(=O)C1,inactive,
COc1cc(C(=O)NCc2ccc3[nH]c(C)cc3c2)cc(OC)c1OC,"inconclusive [activator, partial curve, poor fit]",
Cc1nn(-c2ccccc2)nc1C(=O)Nc1ccc2[nH]ncc2c1,inactive,
Cc1ccccc1-c1nc2cc(N)ccc2o1,inactive,
COc1cc(NC(=O)CCS(=O)(=O)c2ccc3c(c2)CC(=O)N3C)cc(OC)c1OC,inactive,
COc1ccc(NC(=O)c2sc3nc(-c4cccnc4)ccc3c2N)cc1OC,inactive,

SMILES,Potency,growth rescue
C/C(=N\OC(=O)c1ccc(F)cc1)c1sc(-c2ccccc2)nc1C,,"inactive: 12.4% [at 9.22 µM, 0% DMSO, 100% iron-clioquinol control]"
CNc1ccccc1C(C)(C)c1cc(-c2cc(C)cc(C)c2)no1,"inconclusive [activator, single point]",
O=C(CN1C(=O)COc2ccccc21)NCCc1ccc(Cl)cc1,"inconclusive [activator, partial curve, poor fit]",
Cc1cc(C(=O)C(C(c2ccccc2)N2CCOCC2)N2CCOCC2)ccc1Cl (centres undefined),"inconclusive [activator, full curve]",
O=C(Nc1ccc(Cl)cn1)c1cc2c(s1)-c1ccccc1OC2,inactive,
CCC(Oc1ccccc1)C(=O)Nc1cc(-c2cccc(C)c2)nn1-c1ccccc1 (centres undefined),inactive,
Cc1ccc(CCC(=O)Nc2nccs2)o1,"inconclusive [activator, single point]",
Cc1ccc(NC(=O)Cn2cc(S(=O)(=O)c3ccc(C)cc3)c(=O)c3cc4c(cc32)OCO4)cc1,inactive,
COC(=O)C1=C(C)N(Cc2ccccc2)C(=O)N[C@H]1c1ccccc1,inactive,
Cc1cc2c(N=O)c(NO)ccc2[nH]1,inactive,
COc1ccc2c(c1)c1nc3ccccc3nc1n2Cc1ccc(OC)c(OC)c1,"inconclusive [activator, single point]",
Cc1cc(/C=N/NC(=O)c2ccc(CN3CCOCC3)cc2)c(C)n1-c1ccccc1,"inconclusive [activator, full curve, poor fit]",
CSCCC(NS(=O)(=O)c1ccc(Cl)cc1)C(=O)OCC(=O)N(C(C)C)C(C)C (centres undefined),"inconclusive [activator, single point]",
O=C(Cc1ccccc1)N(Cc1cccnc1)c1nc2c(F)cc(F)cc2s1,inactive,
CC12CCC(=O)N1C(C(=O)Nc1cc(C(F)(F)F)ccc1N1CCOCC1)CS2 (centres undefined),"inconclusive [activator, partial curve, poor fit]",
O=C(C1CC(=O)N(c2ccc3c(c2)OCCO3)C1)N1CCN(c2cccc(C(F)(F)F)c2)CC1 (centres undefined),inactive,
CCOC(=O)[C@H]1[C@H]2COc3ccc(C)cc3[C@@H]2N2C(=O)c3cc(Cl)ccc3NC(=O)[C@@]12C,"inconclusive [activator, partial curve, poor fit]",
Cc1ccc(-n2c(SCc3cccc(F)c3)nc3[nH]ncc3c2=O)cc1C,inactive,
Cc1cccc(NC(=O)CNC(=O)c2ccccc2Cl)n1,inactive,
C/C(=N\NC(N)=S)c1cc(-c2ccccc2)c(-c2ccccc2)s1,"inconclusive [activator, partial curve, poor fit]",
O=C(Nc1ccc2nc[nH]c2c1)c1ccco1,"inconclusive [activator, partial curve, poor fit]",
S=C(Nc1cccc2ccccc12)NC1CCCCC1,active: 12.6 µM,
COC(=O)c1ccccc1NC(=O)C1=CC(c2ccc(C)cc2)=NS(=O)(=O)N1C,inactive,
O=C(NNC(=S)Nc1ccc(Br)cc1)c1ccccc1Br,"inconclusive [activator, partial curve]",
